Measurements from EP4603109A1, “ANTIBODY-DRUG CONJUGATE, PREPARATION METHOD THEREFOR, AND USE THEREOF” (priority 2022, dated 2024).

Tests used:
[1] = test system: Human colon cancer cells HT29; test: In vivo efficacy in HT29 model; settings: HT29 tumor-bearing mouse, 10 mg/kg i.v., QW, twice
[2] = test system: Human breast squamous carcinoma cell line HCC1806; test: In vivo efficacy of different ADCs in HCC1806 model; settings: HCC1806 tumor-bearing mouse, 10 mg/kg i.v. once
[3] = test system: Human breast squamous carcinoma cell line HCC1806; test: In vivo efficacy of different conjugates of 2#8890 in HCC1806 model; settings: HCC1806 mouse; for TGI (%): VP52; for VP52(mm^3, mean±SEM): tumor volume
[4] = test system: Human gastric cancer cells NCI-N87; test: Efficacy of different ADCs in NCI-N87 model; type: in vivo; settings: NCI-N87 mouse, QW, twice; for TGI (%): VP42; for VP42 (mm^3, mean±SEM): tumor volume
[5] = Hydrophilicity detection (TSKgel Butyl-NPR column); type: physicochemical; settings: (retention time of sample - hydrophilic control)/(hydrophobic control - hydrophilic control); smaller = more hydrophilic
rat B7-H3-his = target: T1, rat B7-H3-his (Rattus norvegicus, UniProt Q7TPB4); test: Dynamic affinity by ForteBio (BLI); type: binding; settings: Protein A sensor, 1:1 global fitting
T1 construct: His
T1 sequence (Q7TPB4 29-316): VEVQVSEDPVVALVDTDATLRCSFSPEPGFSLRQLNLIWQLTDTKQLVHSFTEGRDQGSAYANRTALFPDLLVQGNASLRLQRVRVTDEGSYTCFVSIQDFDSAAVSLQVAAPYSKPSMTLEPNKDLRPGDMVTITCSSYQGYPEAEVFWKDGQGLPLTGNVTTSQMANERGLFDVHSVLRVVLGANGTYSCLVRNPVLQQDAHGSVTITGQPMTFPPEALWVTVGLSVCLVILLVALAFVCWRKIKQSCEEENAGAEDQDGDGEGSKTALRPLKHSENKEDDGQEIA

[6] = test system: human colon cancer cell HT29; test: Cell affinity by flow cytometry; settings: cell binding, FACS Median PE
[7] = test system: human non-small cell lung cancer cell HCC827; test: Cell affinity by flow cytometry; settings: cell binding, FACS Median PE
[8] = test system: Human breast squamous carcinoma cell line HCC1806; test: Efficacy of different doses of ADCs in HCC1806 model; type: in vivo; settings: HCC1806 mouse; for TGI (%): VP27
[9] = test system: human breast squamous cell carcinoma cell HCC1806; test: Tumor growth inhibition in subcutaneous HCC1806 mouse CDX model; type: in vivo, Balb/cNude mice; settings: 1 dose on Day 0
CD32a = target: T2, CD32a (Homo sapiens, UniProt P12318); test: Binding affinity to Fc receptors by ForteBio; settings: SA sensor, biotinylated receptor, 1:1 fitting
T2 sequence (P12318 34-317): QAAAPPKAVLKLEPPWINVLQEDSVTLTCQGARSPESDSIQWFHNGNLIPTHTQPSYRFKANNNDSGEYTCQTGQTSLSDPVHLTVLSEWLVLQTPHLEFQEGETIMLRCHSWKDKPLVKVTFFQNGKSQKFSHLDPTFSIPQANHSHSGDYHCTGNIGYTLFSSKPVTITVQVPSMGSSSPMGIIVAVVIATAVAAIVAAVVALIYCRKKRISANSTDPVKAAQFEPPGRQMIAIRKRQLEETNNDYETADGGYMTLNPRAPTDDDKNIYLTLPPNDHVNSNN

[10] = parameters: species or system cynomolgus monkeys; settings: cynomolgus monkey, in vivo, iv, 50 mg/kg
[11] = Repeated dose toxicity test; type: in vivo; settings: cynomolgus monkeys
[12] = test system: human gastric cancer cell NCI-N87; settings: cell binding, FACS Median PE
[13] = test system: human mammary squamous cancer cell HCC1806; settings: cell binding, FACS Median PE
CHO-S-human B7-H3-4Ig = CHO-S-human B7-H3-4Ig (Homo sapiens, UniProt Q5ZPR3); settings: cell binding, FACS Median PE
CHO-S-human B7-H3-2Ig = CHO-S-human B7-H3-2Ig (Homo sapiens, UniProt Q5ZPR3); settings: cell binding, FACS Median PE
CHO-S-rat B7-H3 = CHO-S-rat B7-H3 (Rattus norvegicus, UniProt Q7TPB4); settings: cell binding, FACS Median PE
CHO-S-monkey B7-H3 = settings: cell binding, FACS Median PE
[14] = test system: human gastric cancer cell NCI-N87; settings: endocytosis, pHrodo, 24 h, Median YL-1H
[15] = test system: human mammary squamous carcinoma cell HCC1806; settings: endocytosis, pHrodo, 24 h, Median YL-1H
[16] = 10 mg/kg i.v. once (DAR4 group)
[17] = i.v. 30 mg/kg QW x2, then 50 mg/kg QW x2

Sequence of CHO-S-human B7-H3-4Ig (Q5ZPR3 29-534): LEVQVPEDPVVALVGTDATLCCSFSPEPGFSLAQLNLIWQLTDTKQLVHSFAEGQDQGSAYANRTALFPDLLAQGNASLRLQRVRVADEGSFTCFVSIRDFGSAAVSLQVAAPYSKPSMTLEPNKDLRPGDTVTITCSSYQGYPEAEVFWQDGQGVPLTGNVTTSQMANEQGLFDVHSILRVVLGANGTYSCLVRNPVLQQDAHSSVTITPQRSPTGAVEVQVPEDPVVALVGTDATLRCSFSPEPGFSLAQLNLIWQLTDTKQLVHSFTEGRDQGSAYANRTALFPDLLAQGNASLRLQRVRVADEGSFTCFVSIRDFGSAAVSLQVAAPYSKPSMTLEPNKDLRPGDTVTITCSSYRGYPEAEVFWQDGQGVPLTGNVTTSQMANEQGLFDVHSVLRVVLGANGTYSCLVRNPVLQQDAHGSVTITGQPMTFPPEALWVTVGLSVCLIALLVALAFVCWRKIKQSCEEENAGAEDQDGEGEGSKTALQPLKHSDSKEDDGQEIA
Sequence of CHO-S-human B7-H3-2Ig (Q5ZPR3 29-316 isoform Q5ZPR3-2 limits assumed): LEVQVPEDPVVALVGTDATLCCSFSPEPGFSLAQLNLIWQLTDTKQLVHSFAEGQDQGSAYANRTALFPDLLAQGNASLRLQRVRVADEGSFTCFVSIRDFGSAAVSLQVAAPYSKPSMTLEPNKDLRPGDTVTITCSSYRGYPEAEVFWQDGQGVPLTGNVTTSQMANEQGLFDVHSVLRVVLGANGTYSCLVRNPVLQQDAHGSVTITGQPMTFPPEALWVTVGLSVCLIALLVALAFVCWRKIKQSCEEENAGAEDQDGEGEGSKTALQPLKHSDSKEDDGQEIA

B1: ADC 3 (conjugate)
heavy: QVQLQESGPGLVQPSGTLSLTCAVSGGSDSSTNWWTWVRQSPGQGLEWIGEISPIGFTSYSPSLRSRVTISVDKSKTQFSLKLSSVTAADTAVYYCARDRLYFAFWGQGTLVTVSSASTKGPSVFPLAPSSKSTSGGTAALGCLVKDYFPEPVTVSWNSGALTSGVHTFPAVLQSSGLYSLSSVVTVPSSSLGTQTYICNVNHKPSNTKVDKKV[human IgG1 Fc with L234A L235A G237A (EU numbers) left out here]
light: EIVMTQSPATLSVSPGERATLSCRASQSVSSNLAWYQQKPGQAPRLLIYGASTRATGIPDRFSGSGSGTEFTLTISSLESEDFAVYYCQQYNNWPITFGQGTRLEIKRTVAAPSVFIFPPSDEQLKSGTASVVCLLNNFYPREAKVQWKVDNALQSGNSQESVTEQDSKDSTYSLSSTLTLSKADYEKHKVYACEVTHQGLSSPVTKSFNRGEC
TGI (%) ([1]; VP25): 64.14** % | VP25(mm^3, mean±SEM) ([1]; tumor volume): 1162.05±71.89 mm^3 | TGI (%) ([2]; VP25): 91.02*** % | VP25(mm^3, mean±SEM) ([2]; tumor volume): 299.18±87.93 mm^3 | TGI (%) [3, 16]: 75.85* % | VP52(mm^3, mean±SEM) [3, 16]: 969.56±326.50 mm^3 | TGI (%) ([4]; 10 mg/kg i.v.): 38.67% | VP42 (mm^3, mean±SEM) ([4]; 10 mg/kg i.v.): 875.71±114.43 mm^3 | Hydrophobicity value [5]: 0.93

B2: ADC 9 (conjugate)
heavy: B1 heavy
light: B1 light
Rat B7-H3-his KD (M) (rat B7-H3-his): Not bond | EC50 (ng/ml) HT29 [6]: 5.656 ng/mL | EC50 (ng/ml) HCC827 [7]: 13.05 ng/mL | TGI (%) ([8]; 0.5 mg/kg i.v. once): 53.66% | TGI (%) ([8]; 5 mg/kg i.v. once): 156.56* * % | VP27 (mm^3, mean±SEM) ([8]; tumor volume, 5 mg/kg i.v. once): 75.12±27.55 mm^3 | TGI (%) ([4]; 5 mg/kg i.v.): 71.16** % | VP42 (mm^3, mean±SEM) ([4]; 5 mg/kg i.v.): 474.09±121.07 mm^3 | T/C (%) ([9]; Day 14, 3 mg/kg i.v.): 15.42% | TGI (%) ([9]; Day 14, 3 mg/kg i.v.): 98.50% | Tumor volume (mm^3) (x±SEM) ([9]; Day 14, 3 mg/kg i.v.): 201.74±45.01 mm^3 | Hydrophobicity value [5]: 0.99 | KD (M) CD32a (CD32a): Not bond | CL F obs [10]: 422.692 L/h/kg | findings during the recovery period ([11]; after 30 mg/kg QW x2 and 50 mg/kg QW x2): local pigmentation and slight hair loss were also observed, and other changes showed a recovery trend | findings during the administration period [11, 17]: loss of appetite | haematology changes in female monkeys [11, 17]: WBC, NEUT, LYM and MONO decreased and FBG increased | haematology changes in male monkeys [11, 17]: FBG increased and RBC, HGB and HCT decreased | highest no serious toxicity dose (HNSTD) ([11]; i.v. 30 mg/kg once a week x2, then 50 mg/kg once a week x2): 50 mg/kg | EC50(ng/ml) NCI-N87 [12]: 5.953 ng/mL | EC50(ng/ml) HCC1806 [13]: 7.264 ng/mL | EC50 (ng/ml) CHOS-B7-H3-4Ig (CHO-S-human B7-H3-4Ig): 45.96 ng/mL | EC50 (ng/ml) CHOS-B7-H3-2Ig (CHO-S-human B7-H3-2Ig): 41.34 ng/mL | EC50 (ng/ml) CHOS-rat B7-H3 (CHO-S-rat B7-H3): Not bond | EC50 (ng/ml) CHOS-monkey B7-H3 (CHO-S-monkey B7-H3): 40.94 ng/mL | EC50(ng/ml) NCI-N87 [14]: 8.649 ng/mL | EC50(ng/ml) HCC1806 [15]: 18.94 ng/mL

B3: ADC 11 (conjugate)
heavy: B1 heavy
light: B1 light
TGI (%) ([3]; 5 mg/kg i.v. once (DAR8 group)): 80.29* % | VP52(mm^3, mean±SEM) ([3]; 5 mg/kg i.v. once (DAR8 group)): 819.27±346.44 mm^3 | TGI (%) ([4]; 5 mg/kg i.v.): 53.83* % | VP42 (mm^3, mean±SEM) ([4]; 5 mg/kg i.v.): 688.71±105.48 mm^3 | T/C (%) ([9]; Day 14, 3.16 mg/kg i.v.): 29.12% | TGI (%) ([9]; Day 14, 3.16 mg/kg i.v.): 82.61% | Tumor volume (mm^3) (x±SEM) ([9]; Day 14, 3.16 mg/kg i.v.): 370.35±41.88 mm^3 | Hydrophobicity value [5]: 1.17

Read-outs that look alike come from different tables or passages of the source. Marks after values point to notes of the source that are not given here.
